Measurements: article PMC12040169 (PLOS Biology, 2025)
The other results are listed elsewhere or left out.

What follows are compounds tested on T1, C. trachomatis L2/434/Bu expressing GFP (CTL2-GFP). Details: total inclusion area; 28.5 h, 10 µM; inhibitor.
T1 construct: L2/434/Bu GFP intracellular growth in HeLa cells
Parameters: species or system HeLa; C. trachomatis total inclusion area by high-content imaging, normalised to DMSO
In short: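 Bulk GFP and resorufin signals were read first. Wells were then fixed, stained with Hoechst and imaged to detect GFP inclusions and host nuclei. MICs followed the previously described calculation.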

SMILES | % of control remaining
O=C(NNC(=O)C(O)c1ccccc1)NC1CCCCC1 (stereo not drawn) [CBK262625] | 95.5762
N#Cc1ccc(OCC(=O)Nc2ncccn2)cc1 [CBK304578] | 33.6082
CCCCCC(=O)Nc1c(C)cc(Br)cc1C [CBK058159] | 67.7953
O=C(NCCc1ccccc1)NCCc1cccs1 [CBK045154] | 105.602
Cc1cccc2cnc(C3CCN(C(=O)CCc4ccno4)CC3)cc12 [CBK285197] | 75.5392
O=C(CCNC(Cc1ccccc1)C(=O)O)c1ccccc1 (stereo not drawn) [CBK286655] | 66.2121
O=C(N/N=C/c1ccc[nH]1)C1CC1c1ccccc1 (stereo not drawn) [CBK022120] | 70.8449
COc1ccccc1C(=O)NCCCc1nc2ccccc2[nH]1 [CBK269837] | 86.7273
COc1ccc(-c2nc(NC3CCCCC3)c3ccccc3n2)cc1 [CBK058109] | 84.0126
NCCNCCCCOc1ccc(Cl)c(Cl)c1 [CBK265059] | 83.7632
COc1ccc(S(=O)(=O)Nc2cc(C(=O)O)ccc2C)cc1NC(C)=O [CBK296946] | 52.4501
O=C1C2C3C=CC(C3)C2C(=O)N1CCN1CCN(S(=O)(=O)/C=C/c2ccccc2)CC1 (stereo not drawn) [CBK263663] | 110.72
Cc1cc(CNS(=O)(=O)c2sc3ccc(C(C)C)cc3c2C)no1 [CBK170353] | 121.349
CCn1cc(CN2CCCN(C(=O)c3cn4ccccc4n3)CC2)cn1 [CBK304784] | 74.3652
CNCC(=O)N[C@H]1CCN2C(=O)c3ccc(Cl)cc3NC(=O)[C@@H]2C1 [CBK289566] | 86.3028
O=[N+]([O-])c1ccc(CN2CCN(Cc3cc(Br)ccc3O)CC2)cc1 [CBK263652G] | 81.8303
N#Cc1c(NC(=O)CN2CCN(Cc3ccccc3)CC2)sc2c1CCCC2 [CBK267969] | 83.6835
Cc1ccc(C(CCO)Nc2ncnc3c2c(C)nn3C)cc1 (stereo not drawn) [CBK307387] | 61.3093
Cc1nonc1CC(=O)NC1(c2ccc(F)cc2)CCCC1 [CBK283613] | 93.5615
COc1ncc(-c2nccnc2OCCn2cnc3c2c(=O)n(C)c(=O)n3C)c(OC)n1 [CBK106746] | 97.6986
Cc1cc(CN2CCN(S(=O)(=O)c3ccc(-c4ccccc4)cc3)CC2)cc(C)c1O [CBK062747] | 71.5675

SMILES | % of control remaining
CN(C)C(=O)c1ccc(-c2ccc3c(c2)OC(C2CCN(C(=O)OCc4ccccc4)CC2)OC3)cc1 (stereo not drawn) [CBK144649] | 68.2605
O=C(Nc1nccc(-c2cc(OCC(F)(F)F)ccc2OCC(F)(F)F)n1)c1cccs1 [CBK005949] | 44.4128
Cc1nc(C)c(C(=O)NCCN2CCCC2=O)s1 [CBK282222] | 103.194
O=C(COC(=O)C1CCC(N2C(=O)c3ccccc3C2=O)CC1)c1ccc(-c2ccccc2)cc1 (stereo not drawn) [CBK264789] | 96.8657
Cn1c(=O)c2[nH]c(N3CCN(c4cccc(O)c4)CC3)nc2n(C)c1=O [CBK269760] | 87.4264
O=C(N/N=C\c1ccccc1C(F)(F)F)c1ccc(=O)[nH]n1 [CBK263389] | 79.7023
CC(C)(C)c1csc(N2CCSCC2)n1 [CBK021950] | 19.8116
O=C(O)CCn1ncc2ccccc21 [CBK262257] | 84.3051
O=C(NC(Cc1ccsc1)c1ccccn1)c1ccc(=O)[nH]c1 (stereo not drawn) [CBK285272] | 92.6861
COc1ccccc1OCCNC1CCc2cc(Cl)ccc2C1 (stereo not drawn) [CBK013067C] | 90.2971
Cc1nn(CCC#N)c(C)c1[C@@H]1C=C[C@@H](NC(=O)NC(C)C)C1 [CBK289172] | 87.8118
Cc1cccc(C(=O)Nc2ccc(C(=O)NNC(=O)C(C)(C)C)cc2)c1 [CBK269073] | 67.977
COc1cc(CNC(=O)c2cccc(-c3ccc(OC4CCNCC4)cc3)n2)cc(OC)c1OC [CBK126550T] | 86.9506
Cn1cc(C(=O)N2CCC3(C/C=C/C[C@H]4COCC[C@H]4NC(=O)CNC3=O)CC2)cn1 [CBK292069] | 110.699
Cc1ccc(N(CC(=O)Nc2ccc(C)cc2C)S(=O)(=O)N2CCCC2)cc1 [CBK265998] | 96.4031
CC(NS(=O)(=O)c1ccc(Cl)cc1)C(=O)Nc1ccccc1Sc1ccccc1 (stereo not drawn) [CBK266984] | 94.3597
CCOC(=O)C(NC(=O)N(C1=NCC(C)S1)C1CCCCC1)(OC)C(F)(F)F (stereo not drawn) [CBK021431] | 102.107
N#CC1CCCc2c1[nH]c1ccc(Cl)cc21 (stereo not drawn) [CBK101438] | 50.5577
Cc1ccc(C2=CCN(S(=O)(=O)c3ccc(F)cc3)CC2)o1 [CBK283571] | 67.3055
O=C1COc2ccccc2C/C=C/C[C@H]2CNCC[C@H]2N1 [CBK292033] | 109.701
C/C(=N\NC(=O)c1ccc(CN2CCOCC2)cc1)c1ccc2c(c1)OCCO2 [CBK262755] | 98.4603

SMILES | % of control remaining
CC(=O)NCCSc1nc2ccccc2nc1NC(C)C [CBK105618] | 106.943
Cn1cc(-c2nc(C3CCCCCN3C(=O)c3cccnc3)no2)cn1 (stereo not drawn) [CBK305387] | 83.477
O=C1CC(N2CCN(Cc3ccc4c(c3)OCO4)CC2)C(=O)N1CCc1ccccc1 (stereo not drawn) [CBK074541] | 63.9662
CC(C)Nc1cc(Sc2ccc(Br)cc2)ncn1 [CBK089502] | 105.988
Cc1ccc2[nH]c(Cc3ccc(NC(=O)c4cc(=O)n(C)c5ccccc45)cc3)nc2c1 [CBK285815] | 105.244
Clc1cncc(OCCc2c[nH]c3ccccc23)n1 [CBK176027] | 39.8106
COc1ccc(Nc2nc(-c3cccnc3)cnc2N)cc1 [CBK063952] | 69.7528
Cc1cc(N(C)CCc2ccccc2)nc2cc(Cl)ccc12 [CBK262221] | 82.1607
O=C(CN1CCC(O)(Cc2ccccc2)CC1)N1CCCCCC1 [CBK283500] | 105.575
O=C1NCCCC12CCN(Cc1cccc(F)c1F)CC2 [CBK284877] | 108.514
CCCC(=O)c1ccc(S(=O)(=O)N2CCN(Cc3csc(-c4ccccc4)n3)CC2)cc1 [CBK063161] | 85.7527
COc1ccc(C(=O)N2CCN3C(=O)CCC32C)s1 (stereo not drawn) [CBK282058] | 100.707
COc1cc(OC)nc(C(NC(=O)C2CCN(Cc3cn(C)c4ccccc34)CC2)c2ccc(F)cc2)n1 (stereo not drawn) [CBK148185] | 99.7421
Cc1ncc(CN(Cc2ccccn2)Cc2ccccc2Cl)n1C [CBK282128] | 87.603
O=C(Cn1c(-c2cccs2)n[nH]c1=S)N1CCC(c2nc3cc(Cl)ccc3o2)CC1 [CBK297765] | 99.3295
O=c1ccc2c(-c3ccccc3)ccnc2[nH]1 [CBK073723] | 95.1015
Cc1cc(C)c(S(=O)(=O)Nc2nnc(C(C)C)s2)c(C)c1 [CBK045516] | 85.7379
Cc1nc(COc2ccc(F)cc2)sc1C(=O)O [CBK305074] | 68.0569
CN1CCN(C(=O)c2ccc(Cl)c(S(=O)(=O)N3CCCCC3)c2)CC1 [CBK262228] | 94.7658
CCCC/C=C/c1cc(NCCc2ccccn2)n2nccc2n1 [CBK037155] | 81.8456
O=C(C1CCCO1)N1C2CCC1CC(O)(c1ccco1)C2 (stereo not drawn) [CBK284035] | 111.778

SMILES | % of control remaining
NS(=O)(=O)c1ccc(CCNC(=O)C2c3ccccc3Oc3ccccc32)cc1 [CBK264389] | 118.118
O=C(Nc1cccnc1)c1ccc(CN2CCC(Cc3ccccc3)CC2)cc1 [CBK264095] | 89.7707
O=C(O)CCN1CCn2c3c(c4cc(C5CCCCC5)ccc42)CCCC31 (stereo not drawn) [CBK263236] | 78.4551
O=C(Cc1ccccc1)N1CCC(CC(=O)N2CCC3(CCCCC3)C2)CC1 [CBK286031] | 120.949
CS(=O)(=O)Nc1ccc(CNC(=O)C2(c3ccccc3)CCCC2)cc1 [CBK161525] | 99.8098
Cn1c(CN2CCCC2)nc2cc(NC(=O)c3cccc([N+](=O)[O-])c3)ccc21 [CBK268316] | 93.0521
O=[N+]([O-])c1ccc(NCCNCCO)c(Cl)c1 [CBK261006] | 90.8229
CN1CCN(C(=O)c2cccc(-c3nc(-c4ccc(C#N)cc4)cnc3N)c2)CC1 [CBK064144] | 77.5637
Cc1ccc(S(=O)(=O)Nc2cccc(C(=O)O)c2)cc1 [CBK038891] | 98.5495
O=C(NC1CCN(Cc2ccccc2)C1)c1ccc(F)cc1 (stereo not drawn) [CBK283044] | 82.4973
Oc1cccc(-c2nccnc2NCCc2ccccn2)c1 [CBK037388] | 117.23
O=C(NCc1ccccn1)C1CCN(S(=O)(=O)c2ccc(Cl)cc2)CC1 [CBK264959] | 100.158
N#Cc1ccccc1CSc1nc(N)cc(O)n1 [CBK267967] | 116.321
Cc1cc(NC(=O)CN2CCN(c3ccc(F)cc3)CC2)nc2c1c(=O)oc1ccccc12 [CBK291232] | 115.555
Cc1ccccc1OCCn1c(=N)n(CC(C)C)c2ccccc21 [CBK265392B] | 71.5686
FC(F)(F)c1cccnc1OCCNc1ccccc1 [CBK115822] | 112.321
Brc1cn2c(-c3ccccc3)cnc2c(N2CCCC2)n1 [CBK091488] | 73.2097
O=C(NCCCC1CCOC1)c1cnn(-c2ccc(F)cc2)c1 (stereo not drawn) [CBK283288] | 100.345
